{
  "source": "PubChem BioAssay (NCATS)",
  "note": "Where “and” joins values, the source holds several entries; their conditions need not be identical. Identical values can stand only once. This is one part of the list. Further columns of the screen follow, without active or inactive calls. The list favours compounds with an active or inconclusive main result. For some of these results: The note in brackets gives the kind of curve behind each potency; many fits are weak. Tags tell the direction and shape of the fitted curve.",
  "data": [
    {"test": "qHTS Assay for Lipid Storage Modulators (AID 1519)", "conditions": "Drosophila S3 cells, BODIPY lipid droplet/cell ratio, laser cytometry; measured here: lipid channel max response; cells loaded with oleic acid", "procedure,_shortened": "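Cells seeded at 5,000 per well were treated with compounds over a concentration series and loaded with oleic acid (400 uM, as added). Lipid droplet fluorescence (488 nm excitation, 500-530 nm channel) was read by laser-scanning cytometry and normalized to 20 uM Triacsin C.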", "values": [
      {"smiles": "O=c1ccc2ccccc2o1", "max response": "39%"},
      {"smiles": "N#Cc1cccc(NC(=O)N2CCCC3(CCN(C(=O)c4csnn4)CC3)C2)c1", "max response": "33.8%"},
      {"smiles": "COc1cccc(-c2nccc(NCc3cccs3)n2)c1", "max response": "5.38%"},
      {"smiles": "CSc1ccc2c(c1)[C@H](N1CCN(C)CC1)Cc1ccccc1S2", "max response": "75.1%"},
      {"smiles": "COc1cccc(-c2ccc3ncnc(NCc4ccc(OC)cc4OC)c3c2)c1", "max response": "14.6%"},
      {"smiles": "CC(C)=CCC/C(C)=C/CC/C(C)=C/CO", "max response": "32.5% and 32.8%"},
      {"smiles": "O=C(c1cccc(F)c1)N1CCC2(CC1)CCN(c1ccccn1)CC2", "max response": "18.9%"}
    ]},
    {"test": "qHTS assay for small molecule antagonists of peroxisome proliferator-activated receptor gamma signaling (AID 588537)", "conditions": "HEK293 PPARg-UAS-bla, beta-lactamase ratio, antagonist mode; measured here: W460 blue channel", "procedure,_shortened": "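Antagonist mode, beta-lactamase reporter in HEK293; charcoal/dextran FBS 1%; 3000 cells/well, 37 C 6-6.5 h; cpd titration + rosiglitazone 50 nM final, 16 h 37 C; CCF4, 2 h RT; 460/530 nm; Hill fit → IC50, efficacy.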", "values": [
      {"smiles": "O=C(/C=C/C=C/c1ccc2c(c1)OCO2)N1CCCCC1", "AC50": "44.7 µM [falling, single point]"},
      {"smiles": "N[C@@H](Cc1ccccc1)C(=O)O", "AC50": "0.00141 µM [falling, full curve, poor fit]"},
      {"smiles": "Nc1ccc(S(=O)(=O)c2ccc(N)cc2)cc1", "AC50": "63.1 µM [rising, single point]"},
      {"smiles": "CCOc1ccc(NC(C)=O)cc1", "AC50": "50.1 µM [rising, single point]"},
      {"smiles": "O=c1ccc2ccccc2o1", "AC50": "50.1 µM [rising, single point]"}
    ]},
    {"test": "qHTS assay for small molecule agonists of retinoid X receptor alpha signaling (AID 588544)", "conditions": "HEK293T RXRa-UAS-bla, beta-lactamase reporter, 18 h; 530 nm emission", "units": {"max response": "%"}, "values": [
      {"smiles": "O=C(/C=C/C=C/c1ccc2c(c1)OCO2)N1CCCCC1", "max response": 18.3},
      {"smiles": "COc1cc(C=O)ccc1O", "max response": 7.64},
      {"smiles": "O=c1c(O)c(-c2ccc(O)cc2O)oc2cc(O)cc(O)c12", "max response": 63.7},
      {"smiles": "Nc1ccc(S(=O)(=O)c2ccc(N)cc2)cc1", "max response": -0.122},
      {"smiles": "O=c1ccc2ccccc2o1", "max response": 10.1},
      {"smiles": "CC(C)=CCC/C(C)=C/CC/C(C)=C/CO", "max response": -14.9}
    ]},
    {"test": "qHTS assay for small molecule antagonists of retinoid X receptor alpha signaling (AID 588546);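 also: cells stimulated with 9-cis-retinoic acid as agonist; % is scaled to controls: 0 for no effect and ±100 for the full control effect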", "conditions": "HEK293T RXRa-UAS-bla, beta-lactamase ratio, antagonist mode; measured here: W530 green channel, cytotoxicity proxy", "procedure,_shortened": "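Beta-lactamase reporter inhibition, read as CCF4 fluorescence ratio (ex 405, em 460/530 nm) after 2 h at RT. HEK293T UAS-bla cells, 2500/well, were stimulated with 9-cis-RA at 500 or 100 nM final alongside test compound for 18 h at 37 C.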", "units": {"max response": "%"}, "values": [
      {"smiles": "O=C(/C=C/C=C/c1ccc2c(c1)OCO2)N1CCCCC1", "max response": -0.248},
      {"smiles": "CC(=O)O[C@H]1C(=O)[C@@]2(C)[C@H]([C@H](OC(=O)c3ccccc3)[C@]3(O)C[C@H](OC(=O)[C@H](O)[C@@H](NC(=O)c4ccccc4)c4ccccc4)C(C)=C1C3(C)C)[C@]1(OC(C)=O)CO[C@@H]1C[C@@H]2O", "max response": -2.59},
      {"smiles": "CC(=O)OCC(COC(C)=O)OC(C)=O", "max response": -9.2},
      {"smiles": "Nc1ccc(S(=O)(=O)c2ccc(N)cc2)cc1", "max response": 2.49}
    ]}
  ]
}
